According to PubChem BioAssay AID1346428 (National Center for Advancing Translational Sciences (NCATS), 2018):
The campaign covered roughly 48,000 compounds. About 1,200 (2.5%) were called active. Roughly 2% stayed inconclusive and do not appear here.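 The calls were made as follows: active = activation of at least 60% and not above a set upper limit (about 1 call in 100 departs from these limits); inconclusive = activation of 40% to 60%, or above that upper limit; inactive = activation under 40%.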 The list shows a part of the results.

biological target: Probable G-protein coupled receptor 32 (Homo sapiens) (UniProt O75388); test: qHTS for Agonists of Human Resolvin D1 Receptor DRV1; conditions: CHO-K1 GPR32 beta-arrestin PathHunter luminescence, 90 min; at 76.9 µM; hits give high values; zero percent set by DMSO-only wells; also: 0% is about no effect
Chain of UniProt O75388 (O75388 whole entry, looked up): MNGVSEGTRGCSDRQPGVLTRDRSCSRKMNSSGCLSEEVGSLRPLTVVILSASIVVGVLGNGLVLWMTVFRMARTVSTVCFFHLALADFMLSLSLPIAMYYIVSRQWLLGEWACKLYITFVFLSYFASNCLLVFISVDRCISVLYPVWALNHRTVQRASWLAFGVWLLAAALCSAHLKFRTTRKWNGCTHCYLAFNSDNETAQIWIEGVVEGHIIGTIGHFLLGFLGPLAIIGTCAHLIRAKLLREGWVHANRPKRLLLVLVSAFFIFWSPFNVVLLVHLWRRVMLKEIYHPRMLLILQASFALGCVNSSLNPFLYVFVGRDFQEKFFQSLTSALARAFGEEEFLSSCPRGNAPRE
How it was run: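 CHO-K1 cells stably expressing ProLink-tagged GPR32 and Enzyme Activator-tagged beta-arrestin were seeded at 2,500 cells/well overnight, exposed to compounds for 90 min at 37 °C, then read by beta-Gal complementation chemiluminescence after 1 h detection reagent.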

SMILES	activation
COc1ccc(Cn2c(C(=O)O)c(CNCCc3ccccc3Cl)c3ccc(C)cc32)cc1	inactive: 45.1%
Cc1ccc(-n2nc3c(=O)n(C(C)C(=O)O)nc(C)c3c2C)cc1 (stereo not drawn)	inactive: -10.6%
COc1cccc(CNC(=O)Cn2c(=O)oc3cc(S(=O)(=O)N4CCC(C)CC4)ccc32)c1	inactive: 12.4%
CCC(=O)N1CCc2cc(S(=O)(=O)CCC(=O)NCc3ccc(F)cc3)ccc21	inactive: 33%
CC(C)NC(=O)c1cc2c(Cl)nc3ccccc3c2s1	inactive: 14.2%
Cc1cc(O)c(C(=O)c2cnc3c(c2)COc2ccccc2-3)cc1Cl	inactive: -27.1%
Cc1ccc(CNC(=O)c2ccc3c(c2)N(Cc2cccc(Cl)c2)C(=O)CS3)cc1	inactive: -8.18%
CCOc1ccc(NC(=O)Cn2cc(C(=O)c3ccc(C)c(C)c3)c(=O)c3cc(F)ccc32)cc1	inactive: -11.2%
Cc1ccc(Cl)cc1NC(=O)Cn1c(=O)n(CCC(=O)N2CCc3ccccc3C2)c(=O)c2ccccc21	inactive: 2.58%
CCOc1ccc2nc(N3CCCC(C(=O)NCCc4ccc(SC)cc4)C3)sc2c1 (stereo not drawn)	inactive: -2.89%
COc1cc(NC(=O)CSc2nc3nc(C)c(Cc4ccccc4)c(C)n3n2)cc(OC)c1	inactive: -8.38%
CCN(c1ccc(C)cc1C)S(=O)(=O)c1nnc(NC(=O)CC(C)C)s1	inactive: 37.5%
Cc1c(CNC(C)c2ccccc2)c(C(=O)O)c(C)n1Cc1c(F)cccc1Cl (stereo not drawn)	inactive: 2.92%
CCOC(=O)C1CCCN(C(=O)c2cc3c(=O)n(C)c4ccccc4c3s2)C1 (stereo not drawn)	active: 103%
CCOc1ccc(-c2c(C)nn3c(C)c(C(=O)NCC(C)c4ccccc4)cnc23)cc1OCC (stereo not drawn)	inactive: -17.5%
C[N+](C)(C)CC(=O)[O-]	inactive: 3.43%
COc1cc(-c2noc(-c3nnn(-c4ccc(Cl)cc4)c3C)n2)cc(OC)c1OC	inactive: -12.2%
CCc1ccc(N2C(=O)CS(=O)(=O)C23C(=O)N(Cc2ccccc2)c2ccccc23)cc1 (stereo not drawn)	inactive: -9.83%
Cc1ccc(-n2nc(CO)c(C(=O)NCCc3ccccc3)n2)cc1C	inactive: -10.9%
O=C(Nc1ccccc1C(F)(F)F)c1noc2c1CCCCC2	inactive: 13.5%
CCCc1nn(C)c2c(=O)[nH]c(-c3cc(S(=O)(=O)N4CCN(C)CC4)ccc3OCC)nc12	inactive: -11.2%
CCc1cccc(C)c1Nc1c(-c2ccc(N3CCOCC3)cc2)nc2ncccn12	inactive: -13.6%
CC(=O)c1ccc(NC(=O)C2CCCN(S(=O)(=O)c3cn(C)cn3)C2)cc1 (stereo not drawn)	inactive: -14%
Cc1cc(S(=O)(=O)n2ccnc2C(C)C)cc([N+](=O)[O-])c1C	inactive: -14.1%
CCCNc1ccc(-c2nc(-c3ccco3)no2)cc1[N+](=O)[O-]	inactive: 49.3%
CCc1ccc(CNC(=O)C(CC)n2nc(C)c3c(C)n(-c4ccccc4)nc3c2=O)cc1 (stereo not drawn)	inactive: 9.3%
CCOC(=O)c1[nH]c2ccccc2c1NC(=O)c1ccccc1OC	inactive: 6.45%

SMILES	activation
COc1ccc(CNc2nc(-c3ccco3)nn2C(=O)CC(C)C)cc1	inactive: -26.1%
CCOC(=O)c1nc(Nc2ccc(Cl)cc2)c2c(C)noc2n1	inactive: 8.85%
Cc1ccc(Cl)cc1N1CCN(C(=O)c2cn(CC(C)C)c(=O)c3c2c2ccccc2n3C)CC1	inactive: 6.45%
Cc1ccc(CCNC(=O)c2ccc(CNS(=O)(=O)c3ccc(C)cc3)cc2)cc1	inactive: 12.3%
O=C(Nc1cc(C(F)(F)F)ccc1Cl)c1ccc2c(c1)CCN2S(=O)(=O)c1ccccc1	inactive: -25.6%
CCC(C)(C)C(=O)O[C@H]1C[C@@H](C)C=C2C=C[C@H](C)[C@H](CC[C@@H]3C[C@@H](O)CC(=O)O3)[C@H]21	inactive: 39.5%
COc1ccc(N2CCN(C(=O)c3ccc4c(c3)N(Cc3cc(C)ccc3C)C(=O)c3ccccc3S4=O)CC2)cc1 (stereo not drawn)	inactive: -9.84%
Cc1cn2c(=O)cc(COc3cccc(NC(=O)c4ccccc4Cl)c3)nc2s1	inactive: 2.93%
COc1cccc(N2CC(NC(=O)C3CCCCC3)CC2=O)c1 (stereo not drawn)	inactive: -2.02%
CC(=O)c1c(C)oc2ccc(NS(=O)(=O)c3ccc(C(C)C)cc3)cc12	inactive: 31.4%
Cc1cc(C)c(Cn2c(=O)n(-c3ccccc3Cl)c(=O)c3c(C)c(C(=O)N(C)C)sc32)c(C)c1	inactive: -1.89%
CC(Oc1ccccc1)C(=O)Nc1nnc(S(=O)(=O)N2CCCCCC2)s1 (stereo not drawn)	inactive: 2.98%
COc1ccc(C(=O)Nc2nnc(S(=O)(=O)N3CCN(c4ccc(C)cc4)CC3)s2)cc1	inactive: 13.1%
COc1ccc(-c2cc3nc(C)c(CCC(=O)Nc4ccc(F)cc4F)c(C)n3n2)c(OC)c1	inactive: 2.51%
COc1cccc(-c2cc(C(=O)Nc3ccc4c(c3)OCO4)no2)c1	inactive: -1.78%
Cc1ccc(Oc2nc3c(c(=O)n(Cc4ccccc4Cl)c(=O)n3C)n2C)cc1C	inactive: 25.6%
COc1cccc(C(=O)c2sc(Nc3ccc(F)c(Cl)c3)nc2N)c1	inactive: 2.95%
Cn1c(=O)c2sccc2n2c(CCC(=O)Nc3ccc(F)cc3)nnc12	inactive: 1.31%
Cc1cc(C)cc(NC(=O)C(=O)NCC(c2cccnc2)N2CCc3ccccc32)c1 (stereo not drawn)	inactive: -30.4%
CCC1CCCCN1CCCNC(=O)c1ccc2c(c1)sc1nc(-c3ccc(F)cc3)cn12 (stereo not drawn)	inactive: -5.53%
COc1ccc(OC)c(-c2noc(N3CCN(c4cc(Cl)ccc4C)CC3)n2)c1	inactive: 19.9%
Cc1ccc(C)c(NC(=O)CSc2nnc(C)n3c2cc2occc23)c1	inactive: -2.15%
C[C@@H]1CN(c2c(F)c(F)c3c(=O)c(C(=O)O)cn(C4CC4)c3c2F)C[C@H](C)N1	inactive: 20.4%
COC(=O)c1ccc(Cl)cc1NC(=O)Nc1nnc(N(C)Cc2ccccc2)s1	inactive: -10.5%
COc1ccc(C2c3c(-c4ccccc4O)n[nH]c3C(=O)N2CCc2ccccc2)cc1 (stereo not drawn)	inactive: 13.8%
O=S(=O)(Nc1cccc(-c2ccc(N3CCOCC3)nn2)c1)c1cc(C(F)(F)F)ccc1Cl	inactive: 42.9%
